{
  "source": "the supplement of paper PMC4967469",
  "note": "IC50 is the fitted dose that halves viability relative to control wells, and lower means more sensitive; a fit beyond the top or the lowest dose is shown as a bound at that dose. AUC, from the same fit, is the share of area under the viability curve across the 256-fold dose range: 1 means no effect, lower means more sensitive.",
  "data": [
    {"compound": "COc1ccc(C2=N[C@@H](c3ccc(Cl)cc3)[C@@H](c3ccc(Cl)cc3)N2C(=O)N2CCNC(=O)C2)c(OC(C)C)c1 [Nutlin-3a]", "test": "Viability of human cancer cell lines after 72 h of drug (GDSC screen)", "protocol": "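Human cancer cell lines in 384-well plates, medium with 10% serum, drug for 72 h over a 256-fold dose range (nine 2-fold or five 4-fold steps up to the top dose). Adherent lines were fixed and stained with the nucleic acid dye Syto60, suspension lines read with resazurin; signal relative to control wells, capped at 0 and 100%. One two-parameter sigmoid per drug and line, fitted in a mixed model over all curves with the slope shared within a line.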", "units": {"IC50": "µM"}, "values": [
      {"cell line": "HCC1428 (breast, adherent, top dose 8 µM)", "AUC": 0.985, "IC50": "> 8"},
      {"cell line": "HCC1500 (breast, adherent, top dose 8 µM)", "AUC": 0.962, "IC50": "> 8"},
      {"cell line": "HCC1569 (breast, adherent, top dose 8 µM)", "AUC": 0.934, "IC50": "> 8"},
      {"cell line": "HCC1806 (breast, adherent, top dose 8 µM)", "AUC": 0.975, "IC50": "> 8"},
      {"cell line": "HCC1937 (breast, adherent, top dose 8 µM)", "AUC": 0.965, "IC50": "> 8"},
      {"cell line": "HCC1954 (breast, adherent, top dose 8 µM)", "AUC": 0.898, "IC50": "> 8"},
      {"cell line": "HCC2157 (breast, suspension, top dose 8 µM)", "AUC": 0.985, "IC50": "> 8"},
      {"cell line": "HCC2218 (breast, suspension, top dose 8 µM)", "AUC": 0.957, "IC50": "> 8"},
      {"cell line": "HCC-15 (lung squamous cell carcinoma, adherent, top dose 8 µM)", "AUC": 0.972, "IC50": "> 8"},
      {"cell line": "HCC-44 (lung adenocarcinoma, adherent, top dose 4 µM)", "AUC": 0.982, "IC50": "> 4"},
      {"cell line": "HCC-56 (large intestine, adherent, top dose 8 µM)", "AUC": 0.927, "IC50": "> 8"},
      {"cell line": "HCC-78 (lung adenocarcinoma, adherent, top dose 8 µM)", "AUC": 0.971, "IC50": "> 8"},
      {"cell line": "HCC-366 (non-small cell lung carcinoma, adherent, top dose 8 µM)", "AUC": 0.988, "IC50": "> 8"},
      {"cell line": "HCC-827 (lung adenocarcinoma, adherent, top dose 8 µM)", "AUC": 0.917, "IC50": "> 8"},
      {"cell line": "HCT-15 (large intestine, adherent, top dose 8 µM)", "AUC": 0.987, "IC50": "> 8"},
      {"cell line": "HD-MY-Z (Hodgkin lymphoma, adherent, top dose 8 µM)", "AUC": 0.982, "IC50": "> 8"},
      {"cell line": "HDLM-2 (Hodgkin lymphoma, suspension, top dose 8 µM)", "AUC": 0.984, "IC50": "> 8"},
      {"cell line": "HDQ-P1 (breast, adherent, top dose 8 µM)", "AUC": 0.984, "IC50": "> 8"},
      {"cell line": "HEC-1 (endometrium, adherent, top dose 8 µM)", "AUC": 0.941, "IC50": "> 8"},
      {"cell line": "HGC-27 (stomach, adherent, top dose 8 µM)", "AUC": 0.972, "IC50": "> 8"},
      {"cell line": "HH (T-cell leukaemia, suspension, top dose 8 µM)", "AUC": 0.917, "IC50": "> 8"},
      {"cell line": "HL-60 (acute myeloid leukaemia, suspension, top dose 8 µM)", "AUC": 0.961, "IC50": "> 8"},
      {"cell line": "HLE (liver, adherent, top dose 4 µM)", "AUC": 0.97, "IC50": "> 4"},
      {"cell line": "HN (head and neck, adherent, top dose 8 µM)", "AUC": 0.987, "IC50": "> 8"},
      {"cell line": "HO-1-u-1 (head and neck, adherent, top dose 8 µM)", "AUC": 0.988, "IC50": "> 8"},
      {"cell line": "HOP-62 (lung adenocarcinoma, adherent, top dose 8 µM)", "AUC": 0.982, "IC50": "> 8"},
      {"cell line": "HOS (osteosarcoma, adherent, top dose 8 µM)", "AUC": 0.958, "IC50": "> 8"},
      {"cell line": "HSC-2 (head and neck, adherent, top dose 8 µM)", "AUC": 0.988, "IC50": "> 8"},
      {"cell line": "HSC-39 (stomach, suspension, top dose 8 µM)", "AUC": 0.981, "IC50": "> 8"},
      {"cell line": "HT55 (large intestine, adherent, top dose 8 µM)", "AUC": 0.99, "IC50": "> 8"},
      {"cell line": "HT (B-cell lymphoma, suspension, top dose 8 µM)", "AUC": 0.983, "IC50": "> 8"},
      {"cell line": "HT-3 (cervix, adherent, top dose 8 µM)", "AUC": 0.987, "IC50": "> 8"},
      {"cell line": "HT-29 (large intestine, adherent, top dose 8 µM)", "AUC": 0.988, "IC50": "> 8"},
      {"cell line": "HT-115 (large intestine, adherent, top dose 8 µM)", "AUC": 0.991, "IC50": "> 8"},
      {"cell line": "HT-144 (melanoma, adherent, top dose 8 µM)", "AUC": 0.747, "IC50": 2.82},
      {"cell line": "HT-1080 (fibrosarcoma, adherent, top dose 8 µM)", "AUC": 0.835, "IC50": 4.51},
      {"cell line": "HT-1197 (bladder, adherent, top dose 8 µM)", "AUC": 0.903, "IC50": "> 8"},
      {"cell line": "HT-1376 (bladder, adherent, top dose 8 µM)", "AUC": 0.977, "IC50": "> 8"},
      {"cell line": "HUTU-80 (digestive system, adherent, top dose 8 µM)", "AUC": 0.484, "IC50": 0.457},
      {"cell line": "HeLa (cervix, adherent, top dose 8 µM)", "AUC": 0.989, "IC50": "> 8"},
      {"cell line": "Hep 3B2_1-7 (liver, adherent, top dose 8 µM)", "AUC": 0.987, "IC50": "> 8"},
      {"cell line": "Hey (ovary, adherent, top dose 8 µM)", "AUC": 0.756, "IC50": 2.59},
      {"cell line": "Hs633T (fibrosarcoma, adherent, top dose 8 µM)", "AUC": 0.742, "IC50": 2.1},
      {"cell line": "Hs683 (glioma, adherent, top dose 8 µM)", "AUC": 0.963, "IC50": "> 8"},
      {"cell line": "Hs746T (stomach, adherent, top dose 8 µM)", "AUC": 0.979, "IC50": "> 8"},
      {"cell line": "Hs766T (pancreas, adherent, top dose 8 µM)", "AUC": 0.955, "IC50": "> 8"},
      {"cell line": "Hs939-T (melanoma, adherent, top dose 8 µM)", "AUC": 0.84, "IC50": 6.28},
      {"cell line": "Hs-578-T (breast, adherent, top dose 8 µM)", "AUC": 0.987, "IC50": "> 8"},
      {"cell line": "HuCCT1 (biliary tract, adherent, top dose 8 µM)", "AUC": 0.934, "IC50": "> 8"},
      {"cell line": "HuH-7 (liver, adherent, top dose 8 µM)", "AUC": 0.983, "IC50": "> 8"},
      {"cell line": "HuO9 (osteosarcoma, adherent, top dose 8 µM)", "AUC": 0.962, "IC50": "> 8"},
      {"cell line": "HuO-3N1 (osteosarcoma, adherent, top dose 8 µM)", "AUC": 0.982, "IC50": "> 8"},
      {"cell line": "HuP-T3 (pancreas, adherent, top dose 8 µM)", "AUC": 0.98, "IC50": "> 8"},
      {"cell line": "HuP-T4 (pancreas, adherent, top dose 8 µM)", "AUC": 0.984, "IC50": "> 8"},
      {"cell line": "IA-LM (large cell lung carcinoma, adherent, top dose 8 µM)", "AUC": 0.985, "IC50": "> 8"},
      {"cell line": "IGR-1 (melanoma, adherent, top dose 8 µM)", "AUC": 0.921, "IC50": "> 8"},
      {"cell line": "IGR-37 (melanoma, adherent, top dose 8 µM)", "AUC": 0.988, "IC50": "> 8"},
      {"cell line": "IGROV-1 (ovary, adherent, top dose 8 µM)", "AUC": 0.885, "IC50": "> 8"},
      {"cell line": "IHH-4 (thyroid, semi-adherent, top dose 8 µM)", "AUC": 0.808, "IC50": 3.19},
      {"cell line": "IM-9 (myeloma, suspension, top dose 8 µM)", "AUC": 0.962, "IC50": "> 8"},
      {"cell line": "IMR-5 (neuroblastoma, adherent, top dose 8 µM)", "AUC": 0.921, "IC50": "> 8"},
      {"cell line": "IPC-298 (melanoma, adherent, top dose 8 µM)", "AUC": 0.988, "IC50": "> 8"},
      {"cell line": "IST-MEL1 (melanoma, adherent, top dose 8 µM)", "AUC": 0.964, "IC50": "> 8"},
      {"cell line": "IST-SL1 (small cell lung carcinoma, semi-adherent, top dose 8 µM)", "AUC": 0.986, "IC50": "> 8"},
      {"cell line": "IST-SL2 (small cell lung carcinoma, suspension, top dose 8 µM)", "AUC": 0.989, "IC50": "> 8"},
      {"cell line": "JEKO-1 (B-cell lymphoma, suspension, top dose 8 µM)", "AUC": 0.942, "IC50": "> 8"},
      {"cell line": "JHH-1 (liver, adherent, top dose 8 µM)", "AUC": 0.92, "IC50": "> 8"},
      {"cell line": "JHH-2 (liver, adherent, top dose 8 µM)", "AUC": 0.986, "IC50": "> 8"},
      {"cell line": "JHH-4 (liver, adherent, top dose 8 µM)", "AUC": 0.982, "IC50": "> 8"},
      {"cell line": "JHH-7 (liver, adherent, top dose 8 µM)", "AUC": 0.989, "IC50": "> 8"},
      {"cell line": "JHOS-2 (ovary, adherent, top dose 8 µM)", "AUC": 0.922, "IC50": "> 8"},
      {"cell line": "JHOS-3 (ovary, adherent, top dose 8 µM)", "AUC": 0.984, "IC50": "> 8"},
      {"cell line": "JHOS-4 (ovary, adherent, top dose 8 µM)", "AUC": 0.98, "IC50": "> 8"},
      {"cell line": "JHU-011 (head and neck, adherent, top dose 8 µM)", "AUC": 0.956, "IC50": "> 8"},
      {"cell line": "JHU-022 (head and neck, adherent, top dose 8 µM)", "AUC": 0.948, "IC50": "> 8"},
      {"cell line": "JHU-029 (head and neck, adherent, top dose 8 µM)", "AUC": 0.977, "IC50": "> 8"},
      {"cell line": "JIMT-1 (breast, adherent, top dose 8 µM)", "AUC": 0.962, "IC50": "> 8"},
      {"cell line": "JJN-3 (haematopoietic neoplasm, suspension, top dose 8 µM)", "AUC": 0.992, "IC50": "> 8"},
      {"cell line": "JM1 (B-cell lymphoma, suspension, top dose 8 µM)", "AUC": 0.884, "IC50": 6.5},
      {"cell line": "JSC-1 (B-cell lymphoma, suspension, top dose 8 µM)", "AUC": 0.826, "IC50": 4.77},
      {"cell line": "JURL-MK1 (chronic myeloid leukaemia, suspension, top dose 8 µM)", "AUC": 0.959, "IC50": "> 8"},
      {"cell line": "JVM-2 (lymphoid neoplasm, suspension, top dose 8 µM)", "AUC": 0.847, "IC50": "> 8"},
      {"cell line": "JVM-3 (lymphoid neoplasm, suspension, top dose 8 µM)", "AUC": 0.718, "IC50": 2.09},
      {"cell line": "JiyoyeP-2003 (Burkitt lymphoma, suspension, top dose 8 µM)", "AUC": 0.982, "IC50": "> 8"}
    ]}
  ]
}
